These results are taken from PMC12820563.

Some of the results follow. The list includes weakly bound sequences.

The target of this assay is T1, MBP-FoxP3dN (UniProt Q99JB6).
T1 sequence: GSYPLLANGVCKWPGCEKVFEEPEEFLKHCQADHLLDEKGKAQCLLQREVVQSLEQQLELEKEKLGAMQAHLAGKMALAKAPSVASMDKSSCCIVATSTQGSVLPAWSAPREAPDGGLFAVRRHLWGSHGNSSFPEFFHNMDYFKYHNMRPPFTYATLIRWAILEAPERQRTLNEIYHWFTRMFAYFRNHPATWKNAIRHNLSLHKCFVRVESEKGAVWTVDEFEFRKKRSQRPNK
Description: PD-seq (MBP pull-down with sequencing). As to conditions: 20 mM Tris-HCl pH 7.5, 100 mM NaCl, 1.5 mM MgCl2, 0.4 uM protein, 0.1 uM dsDNA library, 30 min, room temperature, amylose pull-down; high values mean tight binding; double strand, one strand shown.
As for “GATGATTGTTCTCCCAGCTGATGAATTTAGGATTTCGAGTAAACAAATTTTCCTAATCTTTCTGTTCAAGCGCCATCTAC”, the binding signal (RPM ratio (pull-down/input)) is 0.408.
In the case of “GATGATTGTTCTCCCAGCTGATGAATTGCCACCTTCGAGTAAACAAATTTTCCTAATCTTTCTGTTCAAGCGCCATCTAC”, the binding signal (RPM ratio (pull-down/input)) was 1.08.
With “GATGATTGTTCTCCCAGCTGATGAATTATCGTGCTCGAGTAAACAAATTTTCCTAATCTTTCTGTTCAAGCGCCATCTAC” the figure was 0.523.
The result for “GATGATTGTTCTCCCAGCTGATGAATTTACACGATCGAGTAAACAAATTTTCCTAATCTTTCTGTTCAAGCGCCATCTAC” reads 0.459; that for “GATGATTGTTCTCCCAGCTGATGAATTCCTACAGTCGAGTAAACAAATTTTCCTAATCTTTCTGTTCAAGCGCCATCTAC”, 0.239; that for “GATGATTGTTCTCCCAGCTGATGAATTGCATTCCTCGAGTAAACAAATTTTCCTAATCTTTCTGTTCAAGCGCCATCTAC”, 3.39.
With “GATGATTGTTCTCCCAGCTGATGAATTAAACTTGTCGAGTAAACAAATTTTCCTAATCTTTCTGTTCAAGCGCCATCTAC” the figure was 0.39; with “GATGATTGTTCTCCCAGCTGATGAATTACGATGATCGAGTAAACAAATTTTCCTAATCTTTCTGTTCAAGCGCCATCTAC”, 0.68.
Turning to “GATGATTGTTCTCCCAGCTGATGAATTGATCAACTCGAGTAAACAAATTTTCCTAATCTTTCTGTTCAAGCGCCATCTAC”, the binding signal (RPM ratio (pull-down/input)) was 0.484.
With “GATGATTGTTCTCCCAGCTGATGAATTTGTTCACTCGAGTAAACAAATTTTCCTAATCTTTCTGTTCAAGCGCCATCTAC” the figure was 2.56; with “GATGATTGTTCTCCCAGCTGATGAATTTTTGGAGTCGAGTAAACAAATTTTCCTAATCTTTCTGTTCAAGCGCCATCTAC”, 0.23.
For “GATGATTGTTCTCCCAGCTGATGAATTTACAGGGTCGAGTAAACAAATTTTCCTAATCTTTCTGTTCAAGCGCCATCTAC”, the binding signal (RPM ratio (pull-down/input)) was found to be 0.375.
For the sequence “GATGATTGTTCTCCCAGCTGATGAATTAGAGTGTTCGAGTAAACAAATTTTCCTAATCTTTCTGTTCAAGCGCCATCTAC”, the binding signal (RPM ratio (pull-down/input)) was determined as 0.85.
The result for “GATGATTGTTCTCCCAGCTGATGAATTTGGTCACTCGAGTAAACAAATTTTCCTAATCTTTCTGTTCAAGCGCCATCTAC” reads 0.69; that for “GATGATTGTTCTCCCAGCTGATGAATTAATCAAATCGAGTAAACAAATTTTCCTAATCTTTCTGTTCAAGCGCCATCTAC”, 0.25; that for “GATGATTGTTCTCCCAGCTGATGAATTGCCGTTTTCGAGTAAACAAATTTTCCTAATCTTTCTGTTCAAGCGCCATCTAC”, 0.855.
With “GATGATTGTTCTCCCAGCTGATGAATTTAGTTTCTCGAGTAAACAAATTTTCCTAATCTTTCTGTTCAAGCGCCATCTAC” the figure was 2.13.
As to “GATGATTGTTCTCCCAGCTGATGAATTGGCGTAGTCGAGTAAACAAATTTTCCTAATCTTTCTGTTCAAGCGCCATCTAC”, the binding signal (RPM ratio (pull-down/input)) was 0.524.
The result for “GATGATTGTTCTCCCAGCTGATGAATTGACCGTTTCGAGTAAACAAATTTTCCTAATCTTTCTGTTCAAGCGCCATCTAC” reads 0.403.
With “GATGATTGTTCTCCCAGCTGATGAATTTCCTATGTCGAGTAAACAAATTTTCCTAATCTTTCTGTTCAAGCGCCATCTAC” the figure was 0.275; with “GATGATTGTTCTCCCAGCTGATGAATTATATTGATCGAGTAAACAAATTTTCCTAATCTTTCTGTTCAAGCGCCATCTAC”, 4.3; with “GATGATTGTTCTCCCAGCTGATGAATTCCTTGTATCGAGTAAACAAATTTTCCTAATCTTTCTGTTCAAGCGCCATCTAC”, 0.47.
For “GATGATTGTTCTCCCAGCTGATGAATTGTGCGGTTCGAGTAAACAAATTTTCCTAATCTTTCTGTTCAAGCGCCATCTAC”, the binding signal (RPM ratio (pull-down/input)) came to 1.48.
The result for “GATGATTGTTCTCCCAGCTGATGAATTTCTCTCATCGAGTAAACAAATTTTCCTAATCTTTCTGTTCAAGCGCCATCTAC” reads 0.291.
With “GATGATTGTTCTCCCAGCTGATGAATTCCCAAACTCGAGTAAACAAATTTTCCTAATCTTTCTGTTCAAGCGCCATCTAC” the figure was 0.252; with “GATGATTGTTCTCCCAGCTGATGAATTAGAACACTCGAGTAAACAAATTTTCCTAATCTTTCTGTTCAAGCGCCATCTAC”, 0.469.
For “GATGATTGTTCTCCCAGCTGATGAATTAGTGAGGTCGAGTAAACAAATTTTCCTAATCTTTCTGTTCAAGCGCCATCTAC”, the binding signal (RPM ratio (pull-down/input)) amounted to 0.587.
Turning to “GATGATTGTTCTCCCAGCTGATGAATTGCATCGATCGAGTAAACAAATTTTCCTAATCTTTCTGTTCAAGCGCCATCTAC”, the binding signal (RPM ratio (pull-down/input)) amounted to 1.57.
The result for “GATGATTGTTCTCCCAGCTGATGAATTCCCACATTCGAGTAAACAAATTTTCCTAATCTTTCTGTTCAAGCGCCATCTAC” reads 0.334; that for “GATGATTGTTCTCCCAGCTGATGAATTGCATAGTTCGAGTAAACAAATTTTCCTAATCTTTCTGTTCAAGCGCCATCTAC”, 1.11; that for “GATGATTGTTCTCCCAGCTGATGAATTCAAGCAGTCGAGTAAACAAATTTTCCTAATCTTTCTGTTCAAGCGCCATCTAC”, 0.501.
The result for “GATGATTGTTCTCCCAGCTGATGAATTGCTGCCATCGAGTAAACAAATTTTCCTAATCTTTCTGTTCAAGCGCCATCTAC” reads 2.29; that for “GATGATTGTTCTCCCAGCTGATGAATTGACTGACTCGAGTAAACAAATTTTCCTAATCTTTCTGTTCAAGCGCCATCTAC”, 0.319; that for “GATGATTGTTCTCCCAGCTGATGAATTCAAATACTCGAGTAAACAAATTTTCCTAATCTTTCTGTTCAAGCGCCATCTAC”, 0.528.
For “GATGATTGTTCTCCCAGCTGATGAATTAGAGGTTTCGAGTAAACAAATTTTCCTAATCTTTCTGTTCAAGCGCCATCTAC”, the binding signal (RPM ratio (pull-down/input)) was found to be 0.552.
The result for “GATGATTGTTCTCCCAGCTGATGAATTCAGAGGTTCGAGTAAACAAATTTTCCTAATCTTTCTGTTCAAGCGCCATCTAC” reads 0.344; that for “GATGATTGTTCTCCCAGCTGATGAATTACAATGATCGAGTAAACAAATTTTCCTAATCTTTCTGTTCAAGCGCCATCTAC”, 0.578.
Take “GATGATTGTTCTCCCAGCTGATGAATTCTTAATATCGAGTAAACAAATTTTCCTAATCTTTCTGTTCAAGCGCCATCTAC”: the binding signal (RPM ratio (pull-down/input)) was found to be 0.369.
With “GATGATTGTTCTCCCAGCTGATGAATTTCTCAGTTCGAGTAAACAAATTTTCCTAATCTTTCTGTTCAAGCGCCATCTAC”, the binding signal (RPM ratio (pull-down/input)) stood at 0.213.
With “GATGATTGTTCTCCCAGCTGATGAATTTTACTCGTCGAGTAAACAAATTTTCCTAATCTTTCTGTTCAAGCGCCATCTAC” the figure was 0.295; with “GATGATTGTTCTCCCAGCTGATGAATTCCAAGGATCGAGTAAACAAATTTTCCTAATCTTTCTGTTCAAGCGCCATCTAC”, 0.174.
“GATGATTGTTCTCCCAGCTGATGAATTACCGGACTCGAGTAAACAAATTTTCCTAATCTTTCTGTTCAAGCGCCATCTAC”: the binding signal (RPM ratio (pull-down/input)) turned out to be 0.242.
As for “GATGATTGTTCTCCCAGCTGATGAATTTATTACATCGAGTAAACAAATTTTCCTAATCTTTCTGTTCAAGCGCCATCTAC”, the binding signal (RPM ratio (pull-down/input)) was determined as 0.906.
The result for “GATGATTGTTCTCCCAGCTGATGAATTAAAACGCTCGAGTAAACAAATTTTCCTAATCTTTCTGTTCAAGCGCCATCTAC” reads 0.357; that for “GATGATTGTTCTCCCAGCTGATGAATTCCACCACTCGAGTAAACAAATTTTCCTAATCTTTCTGTTCAAGCGCCATCTAC”, 0.469; that for “GATGATTGTTCTCCCAGCTGATGAATTACTTATGTCGAGTAAACAAATTTTCCTAATCTTTCTGTTCAAGCGCCATCTAC”, 0.667.
Regarding “GATGATTGTTCTCCCAGCTGATGAATTAGAGCTCTCGAGTAAACAAATTTTCCTAATCTTTCTGTTCAAGCGCCATCTAC”, the binding signal (RPM ratio (pull-down/input)) is 0.326.
The result for “GATGATTGTTCTCCCAGCTGATGAATTGTCCGTCTCGAGTAAACAAATTTTCCTAATCTTTCTGTTCAAGCGCCATCTAC” reads 0.35; that for “GATGATTGTTCTCCCAGCTGATGAATTGACGCTCTCGAGTAAACAAATTTTCCTAATCTTTCTGTTCAAGCGCCATCTAC”, 0.744; that for “GATGATTGTTCTCCCAGCTGATGAATTATACGGCTCGAGTAAACAAATTTTCCTAATCTTTCTGTTCAAGCGCCATCTAC”, 0.356.
With “GATGATTGTTCTCCCAGCTGATGAATTAGGCGAATCGAGTAAACAAATTTTCCTAATCTTTCTGTTCAAGCGCCATCTAC”, the binding signal (RPM ratio (pull-down/input)) is 0.432.
Turning to “GATGATTGTTCTCCCAGCTGATGAATTTGTTGATTCGAGTAAACAAATTTTCCTAATCTTTCTGTTCAAGCGCCATCTAC”, the binding signal (RPM ratio (pull-down/input)) stood at 7.3.
With “GATGATTGTTCTCCCAGCTGATGAATTCTAGGTGTCGAGTAAACAAATTTTCCTAATCTTTCTGTTCAAGCGCCATCTAC” the figure was 0.482.
Consider “GATGATTGTTCTCCCAGCTGATGAATTCTAATCGTCGAGTAAACAAATTTTCCTAATCTTTCTGTTCAAGCGCCATCTAC”, for which the binding signal (RPM ratio (pull-down/input)) turned out to be 0.384.
In the case of “GATGATTGTTCTCCCAGCTGATGAATTTGCCAGCTCGAGTAAACAAATTTTCCTAATCTTTCTGTTCAAGCGCCATCTAC”, the binding signal (RPM ratio (pull-down/input)) is 0.472.
As for “GATGATTGTTCTCCCAGCTGATGAATTGGGGGGATCGAGTAAACAAATTTTCCTAATCTTTCTGTTCAAGCGCCATCTAC”, the binding signal (RPM ratio (pull-down/input)) was 0.37.
With “GATGATTGTTCTCCCAGCTGATGAATTGAGGAGATCGAGTAAACAAATTTTCCTAATCTTTCTGTTCAAGCGCCATCTAC” the figure was 0.248; with “GATGATTGTTCTCCCAGCTGATGAATTGTGGACATCGAGTAAACAAATTTTCCTAATCTTTCTGTTCAAGCGCCATCTAC”, 0.982.
With “GATGATTGTTCTCCCAGCTGATGAATTGGATCTGTCGAGTAAACAAATTTTCCTAATCTTTCTGTTCAAGCGCCATCTAC” the figure was 0.271; with “GATGATTGTTCTCCCAGCTGATGAATTAGGCCCATCGAGTAAACAAATTTTCCTAATCTTTCTGTTCAAGCGCCATCTAC”, 1.08; with “GATGATTGTTCTCCCAGCTGATGAATTTGATTGGTCGAGTAAACAAATTTTCCTAATCTTTCTGTTCAAGCGCCATCTAC”, 5.03.
For the sequence “GATGATTGTTCTCCCAGCTGATGAATTACTGCCTTCGAGTAAACAAATTTTCCTAATCTTTCTGTTCAAGCGCCATCTAC”, the binding signal (RPM ratio (pull-down/input)) came to 1.77.
As for “GATGATTGTTCTCCCAGCTGATGAATTCGCGCAGTCGAGTAAACAAATTTTCCTAATCTTTCTGTTCAAGCGCCATCTAC”, the binding signal (RPM ratio (pull-down/input)) came out at 0.604.
